Several values for one entry are separate records, joined by “and”; a condition that tells them apart may be missing. Equal entries are not always repeated. Screen size: about 420,000 compounds; about 50,000 (12%) were called active. The inconclusive results got no clear call from the source; some entries with a clear call stand among them for comparison. The call rests on the fitted dose curve; in most records, active means well fitted inhibition curve with a large enough effect; inconclusive means small, poorly fitted or top-dose-only effect; inactive means flat fitted curve, though single readings scatter. A potency beside an inconclusive call is a rough fit, not a confirmed value.
Assay: qHTS for Inhibitors of human tyrosyl-DNA phosphodiesterase 1 (TDP1): qHTS in cells in presence of CPT; further: nearly all actives have a fitted effect of over 55% in size
Details: chicken DT40 Tdp1-/-;hTDP1 cells + 20 nM CPT, ATP luminescence, 48 h; series mostly up to 46.2 µM
Outline: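 Chicken DT40 Tdp1-/- cells complemented with human TDP1, 400 cells/well, exposed to compounds plus 20 nM camptothecin for at least 48 h at 37 C; viability read as ATP content by CellTiter-Glo luminescence.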
In the case of `O=C(/C=C/c1ccc(Cl)cc1)c1cccnc1`, the Potency is reported as active: 5.8 µM. With `Cc1cc(Oc2ncccc2[N+](=O)[O-])c2cc(Cl)ccc2n1` the Potency was inconclusive: 23.1 µM [inhibitor, single point]. In the case of `COc1ccc(NC(=O)CN(C)C(=O)c2cc(-c3ccco3)nc3ccccc23)cc1`, the Potency is reported as inconclusive: 29.1 µM [inhibitor, single point]. With `CC(NC(=O)C1CCCC1)c1ccc(Br)cc1` (centres undefined) the Potency was “inactive”. With `CN(C)CCCOc1cccc(Oc2ccccc2)c1` the Potency was inconclusive: 20.6 µM [inhibitor, single point]. With `COc1cccc(NC(=O)C2=COCCO2)c1` the Potency was “inactive”. In the case of `COc1ccc(C(=O)Nc2nc(-c3ccccn3)cs2)cc1S(=O)(=O)N1CCOCC1`, the Potency is reported as active: 13 µM. For `O=C(NCCSCc1ccccc1)C1CCN(S(=O)(=O)Cc2ccccc2)CC1`, the Potency was “inactive”. In the case of `C1CCC(CNc2c3c(nc4nnnn24)CCCC3)CC1`, the Potency is reported as inconclusive: 8.2 µM [inhibitor, partial curve]. In the case of `CN(C)S(=O)(=O)c1cccc(NC(=O)COC(=O)c2cccnc2Cl)c1`, the Potency is reported as “inactive”. For `COCc1cc(=O)n2[nH]c(-c3ccsc3-n3c(C)ccc3C)cc2n1`, the Potency was “inactive”. With `CC(C)N(c1ccccc1)c1ccc(NC(=S)NCCN(C)C)cc1` the Potency was inconclusive: 29.1 µM [inhibitor, single point]. In the case of `CCOC(=O)[C@]12CCC=C1N(Cc1cccc3ccccc13)C(=O)[C@H](CC(=O)N1CCSCC1)C2`, the Potency is reported as inconclusive: 23.1 µM [inhibitor, single point]. With `COc1cccc(-c2nc(CS(=O)(=O)CC(=O)Nc3ccc(F)cc3F)c(C)o2)c1` the Potency was inconclusive: 29.1 µM [inhibitor, partial curve]. With `CC1Oc2cc3oc4c(O)c5c(cc4c(=O)c3c(O)c2C1(C)C)C=CC(C)(C)O5` (centres undefined) the Potency was inconclusive: 20.6 µM [inhibitor, single point]. In the case of `CCOc1cc(/C=C2\N=C(SC(C)C(N)=O)N(c3ccc(OC(F)F)cc3)C2=O)ccc1O` (centres undefined), the Potency is reported as inconclusive: 20.6 µM [inhibitor, single point]. With `CCOC(=O)c1ccc(N=C2SC(C(=O)Nc3ccccc3)CC(=O)N2C)cc1` (centres undefined) the Potency was “inactive”. In the case of `O=C(CNC(=O)c1cc(Cl)nc2ccccc12)Nc1ccccc1Br`, the Potency is reported as “inactive”. With `CCN(CC)c1ccc(/C=c2/sc3nnc(-c4ccccc4C)n3c2=O)cc1` the Potency was inconclusive: 18.4 µM [inhibitor, partial curve]. In the case of `COc1ccc(CCC(=O)N2CCN(S(=O)(=O)c3ccc(OC)c([N+](=O)[O-])c3)CC2)cc1`, the Potency is reported as inconclusive: 16.4 µM [inhibitor, single point]. With `CCN(CC)c1ccc(C2C(C(N)=O)=C(C)Nc3nc(SCc4ccccc4Cl)nn32)cc1` (centres undefined) the Potency was inconclusive: 18.4 µM [inhibitor, partial curve, poor fit]. In the case of `O=c1[nH]nc(Cc2ccc(Cl)cc2Cl)c2ccccc12`, the Potency is reported as “inactive”. In the case of `Nc1c(Cl)cc(-c2csc(N3CCCC3c3nc4cc(Cl)c(N5CCCCC5)cc4n3CCOCCO)n2)cc1Cl` (centres undefined), the Potency is reported as inconclusive: 23.1 µM [inhibitor, single point]. With `Nc1ccc(Nc2ccccc2N)cc1` the Potency was active: 5.17 µM. With `COCCN(Cc1ccccc1)C(=O)c1cccc(S(=O)(=O)N2CCCc3ccccc32)c1` the Potency was active: 13 µM. With `O=C(NNC(=O)c1cc(-c2ccc(Cl)c(Cl)c2)nc2ccccc12)Nc1ccccc1` the Potency was active: 14.6 µM. For `CC(C)NC(=O)c1csc([C@@H]2O[C@H](CO)[C@H](O)[C@H](O)[C@H]2O)n1`, the Potency was “inactive”. For `Cc1ccc(C)c(OCCC(=O)Nc2cccc(S(=O)(=O)NC3=NCCCCC3)c2)c1`, the Potency was inconclusive: 18.4 µM [inhibitor, single point]. With `COCCN1C(=O)CN(S(C)(=O)=O)CC1(C)C(=O)NCc1ccccc1` (centres undefined) the Potency was “inactive”. In the case of `CN(CCc1ccccc1)C(=O)c1ccc(NC(=O)Cc2cccc(NC(=O)C3CCN(S(=O)(=O)c4cccc([N+](=O)[O-])c4)CC3)c2)cc1`, the Potency is reported as “inactive”. With `COc1ccc(S(=O)(=O)NNS(=O)(=O)c2ccc(OC)c(OC)c2)cc1OC` the Potency was “inactive”. For `CCC(=O)Nc1c(C(=O)Nc2cccc(OC)c2)oc2ccccc12`, the Potency was inconclusive: 29.1 µM [inhibitor, single point]. For `CC1CCCCN1c1ncnc(N)c1[N+](=O)[O-]` (centres undefined), the Potency was inconclusive: 23.1 µM [inhibitor, single point]. With `C[C@H](CO)N1C[C@H](C)[C@@H](CN(C)C(=O)Nc2ccc3c(c2)OCO3)Oc2ccc(NC(=O)Nc3ccc(C(F)(F)F)cc3)cc2C1=O` the Potency was inconclusive: 29.1 µM [inhibitor, single point]. With `CC(=O)Nc1ccc(CNc2nc3cc(-c4ccc(F)cc4)sc3c(=O)n2C)cc1` the Potency was inconclusive: 29.1 µM [inhibitor, single point]. In the case of `O=C(O)c1ccccc1-c1c2cc(I)c(=O)c(I)c-2oc2c(I)c(O)c(I)cc12`, the Potency is reported as inconclusive: 11.2 µM [inhibitor, partial curve]. In the case of `CCOC(=O)CSc1ccc(C(=O)Nc2ccc(OC)cc2)cn1`, the Potency is reported as “inactive”. With `CCN(CC)S(=O)(=O)c1ccc(N2CCCCC2)c(NC(=O)c2ccncc2)c1` the Potency was inconclusive: 18.4 µM [inhibitor, single point]. With `CCN(CC)S(=O)(=O)c1cccc(C(=O)Nc2ccccc2C(=O)Nc2ccc(OC)cc2)c1` the Potency was active: 10.3 µM. For `O=C(O)CCC(=O)N1CCc2cc(S(=O)(=O)NCCc3ccc(Cl)cc3)ccc21`, the Potency was inconclusive: 16.4 µM [inhibitor, single point]. With `Cc1cccc(C)c1OCC(=O)N(Cc1ccc(Cl)cc1)C1CCS(=O)(=O)C1` (centres undefined) the Potency was inconclusive: 16.4 µM [inhibitor, single point]. In the case of `CC(C)NC(=O)CSc1c2c(nc3ccccc13)CCCC2`, the Potency is reported as “inactive”. With `CC1CCc2[nH]c3ccc(C(=O)N4CCCC(C(F)(F)F)C4)cc3c2C1` (centres undefined) the Potency was inconclusive: 25.9 µM [inhibitor, single point]. In the case of `COc1ccc(-c2cnc(N)nc2-c2ccc(OCc3ccccc3)cc2O)cc1`, the Potency is reported as inconclusive: 29.1 µM [inhibitor, single point]. With `CC(=O)Nc1cccc(C(=O)/C=C/c2ccc[nH]2)c1` the Potency was inconclusive: 14.6 µM [inhibitor, single point]. For `Cc1ccc(NC(=S)Nc2ccc(F)cc2)cc1C`, the Potency was inconclusive: 29.1 µM [inhibitor, single point]. In the case of `COCCn1c(SCC(=O)N2CCc3ccccc3C2)nc2cc(Cl)ccc2c1=O`, the Potency is reported as inconclusive: 29.1 µM [inhibitor, single point]. For `CCOc1ccc(NC(=O)c2c(NCc3cccs3)sc3c2CCC(C)C3)cc1` (centres undefined), the Potency was inconclusive: 29.1 µM [inhibitor, single point]. In the case of `CC1CC(C)(C)CC2(C1)NC(=O)N(CC(=O)Nc1cc(C(F)(F)F)ccc1N1CCCCC1)C2=O` (centres undefined), the Potency is reported as inconclusive: 29.1 µM [inhibitor, single point]. With `Cc1cc(Cl)c(S(=O)(=O)NCc2ccccc2)cc1OCC(N)=O` the Potency was “inactive”. With `CC1(C)CC(c2nc(-c3ccc([N+](=O)[O-])cc3)cs2)CCO1` (centres undefined) the Potency was inconclusive: 29.1 µM [inhibitor, single point]. With `CCC(c1nnnn1-c1ccc2c(c1)OCCO2)N1CCN(c2cccc(C)c2C)CC1` (centres undefined) the Potency was inconclusive: 29.1 µM [inhibitor, single point]. With `COc1ccccc1CNC(=O)CN(c1ccc(C)cc1)S(=O)(=O)c1c(C)noc1C` the Potency was inconclusive: 23.1 µM [inhibitor, single point] and inconclusive: 6.51 µM [inhibitor, single point]. With `CCn1c(SCC(=O)Nc2cc(C)nn2-c2ccccc2)nnc1-c1cccs1` the Potency was “inactive”. In the case of `O=C(N/N=C/c1cc(Cl)cc([N+](=O)[O-])c1O)c1ccccc1NS(=O)(=O)c1cccs1`, the Potency is reported as “inactive”. With `O=C1CCCCN1CCCC(=O)N1CCCC(Nc2ccc(F)cc2)C1` (centres undefined) the Potency was inconclusive: 25.9 µM [inhibitor, single point]. In the case of `Cc1c(C(=O)Nc2ccc(F)c(F)c2)oc2ccc(S(=O)(=O)N3CCC4(CC3)OCCO4)cc12`, the Potency is reported as active: 13 µM. In the case of `C=CCn1c(=O)n2ncnc2c2c3c(sc21)CCCC3`, the Potency is reported as “inactive”. With `Cc1nc2c(OCCOc3ccc(F)cc3)cccn2c1N(C)C(=O)CCC1CCCC1` the Potency was inconclusive: 29.1 µM [inhibitor, single point]. In the case of `Cc1cccc(C)c1NC(=O)c1c[nH]c2ccccc12`, the Potency is reported as active: 18.4 µM. For `CCCC(=O)N1CCN(c2ccc(NC(=O)c3ccc(N4CCCC4)c([N+](=O)[O-])c3)cc2Cl)CC1`, the Potency was active: 18.4 µM. For `COc1cccc(NC(=O)CN(C)C(=O)c2cc(C)on2)c1`, the Potency was “inactive”. With `O=C(Nc1ccc(S(=O)(=O)N2CCc3ccccc3C2)cc1)C1CCCO1` (centres undefined) the Potency was inconclusive: 7.08 µM [inhibitor, full curve]. For `O=C(NC1CCCCCCC1)c1ccco1`, the Potency was “inactive”. For `Cc1ccc(Nc2nc3ccccc3[nH]2)nc1`, the Potency was inconclusive: 16.4 µM [inhibitor, single point]. With `Cc1cccc(-n2nnc(C(=O)Nc3ccc(F)cc3)c2N)c1` the Potency was inconclusive: 25.9 µM [inhibitor, partial curve, poor fit]. For `CCCCc1ccc(NS(=O)(=O)c2ccc(N3CCCCS3(=O)=O)cc2)cc1`, the Potency was inconclusive: 23.1 µM [inhibitor, single point]. With `CCOc1ccc(C(=O)c2cn(Cc3ccccc3)c3c(F)cc(F)cc3c2=O)cc1` the Potency was inconclusive: 16.4 µM [inhibitor, partial curve, poor fit]. For `Cc1c(NC(=O)c2cc3c(s2)-c2ccccc2OC3)cccc1[N+](=O)[O-]`, the Potency was inconclusive: 29.1 µM [inhibitor, single point].
Potency means the concentration at half of the fitted maximal effect; tags describe the fitted curve by direction and shape.
